Measured values taken from article PMC9911399, “Two distinct binding modes provide the RNA-binding protein RbFox with extraordinary sequence specificity”.
Changes are numbered by the printed parent chain; changes in the protein carry UniProt numbers. Some of the results follow.

T1: RBFOX1 RRM RbFoxmut (Fox-RRM*) (Homo sapiens, UniProt Q9NWB1 109-208, R118D;E147R;N151S;E152T)
T1 sequence: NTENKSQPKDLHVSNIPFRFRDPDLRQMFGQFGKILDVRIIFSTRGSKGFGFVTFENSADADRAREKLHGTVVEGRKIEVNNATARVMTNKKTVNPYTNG

B1: UUACACU (DNA:RNA)
RNA: GGGAGACCGGAAUUCAGAUUGUCCUUACACUUUAAAUCCCGUCGUAGCCACCA
DNA 1: CAATCTGAATTCCGGTCTCCC
DNA 2: TGGTGGCTACGACGGGATT
B2: UGUUCGU (DNA:RNA)
RNA: B1 RNA with U26G, A27U, C28U, A29C, C30G
DNA 1: CAATCTGAATTCCGGTCTCCC
DNA 2: TGGTGGCTACGACGGGATT
B3: GUAUAAG (DNA:RNA)
RNA: B1 RNA with U25G, C28U, C30A, U31G
DNA 1: CAATCTGAATTCCGGTCTCCC
DNA 2: TGGTGGCTACGACGGGATT
B4: AUCCCGU (DNA:RNA)
RNA: B1 RNA with U25A, A27C, A29C, C30G
DNA 1: CAATCTGAATTCCGGTCTCCC
DNA 2: TGGTGGCTACGACGGGATT
B5: GUUUAUC (DNA:RNA)
RNA: B1 RNA with U25G, A27U, C28U, C30U, U31C
DNA 1: CAATCTGAATTCCGGTCTCCC
DNA 2: TGGTGGCTACGACGGGATT
B6: GCGAAAG (DNA:RNA)
RNA: B1 RNA with U25G, U26C, A27G, C28A, C30A, U31G
DNA 1: CAATCTGAATTCCGGTCTCCC
DNA 2: TGGTGGCTACGACGGGATT
B7: CGCAGAG (DNA:RNA)
RNA: GGGAGACCGGAAUUCAGAUUGUCCCGCAGAGUUAAAUCCCGUCGUAGCCACCA
DNA 1: CAATCTGAATTCCGGTCTCCC
DNA 2: TGGTGGCTACGACGGGATT
B8: CACAGUA (DNA:RNA)
RNA: B7 RNA with G26A, A30U, G31A
DNA 1: CAATCTGAATTCCGGTCTCCC
DNA 2: TGGTGGCTACGACGGGATT
B9: CUGACCC (DNA:RNA)
RNA: B7 RNA with G26U, C27G, G29C, A30C, G31C
DNA 1: CAATCTGAATTCCGGTCTCCC
DNA 2: TGGTGGCTACGACGGGATT
B10: CCUGCCU (DNA:RNA)
RNA: B1 RNA with U25C, U26C, A27U, C28G, A29C
DNA 1: CAATCTGAATTCCGGTCTCCC
DNA 2: TGGTGGCTACGACGGGATT
B11: UUCCCCC (DNA:RNA)
RNA: B1 RNA with A27C, A29C, U31C
DNA 1: CAATCTGAATTCCGGTCTCCC
DNA 2: TGGTGGCTACGACGGGATT
B12: AGAAAUG (DNA:RNA)
RNA: B7 RNA with C25A, C27A, G29A, A30U
DNA 1: CAATCTGAATTCCGGTCTCCC
DNA 2: TGGTGGCTACGACGGGATT
B13: GCAAAAU (DNA:RNA)
RNA: B1 RNA with U25G, U26C, C28A, C30A
DNA 1: CAATCTGAATTCCGGTCTCCC
DNA 2: TGGTGGCTACGACGGGATT
B14: GGCACCC (DNA:RNA)
RNA: B7 RNA with C25G, G29C, A30C, G31C
DNA 1: CAATCTGAATTCCGGTCTCCC
DNA 2: TGGTGGCTACGACGGGATT
B15: UUGACUA (DNA:RNA)
RNA: B1 RNA with A27G, C28A, A29C, C30U, U31A
DNA 1: CAATCTGAATTCCGGTCTCCC
DNA 2: TGGTGGCTACGACGGGATT
B16: GAAGGUU (DNA:RNA)
RNA: B1 RNA with U25G, U26A, C28G, A29G, C30U
DNA 1: CAATCTGAATTCCGGTCTCCC
DNA 2: TGGTGGCTACGACGGGATT
B17: ACGUGGU (DNA:RNA)
RNA: B7 RNA with C25A, G26C, C27G, A28U, A30G, G31U
DNA 1: CAATCTGAATTCCGGTCTCCC
DNA 2: TGGTGGCTACGACGGGATT
B18: GCGAACG (DNA:RNA)
RNA: B7 RNA with C25G, G26C, C27G, G29A, A30C
DNA 1: CAATCTGAATTCCGGTCTCCC
DNA 2: TGGTGGCTACGACGGGATT
B19: CGGAUGA (DNA:RNA)
RNA: B7 RNA with C27G, G29U, A30G, G31A
DNA 1: CAATCTGAATTCCGGTCTCCC
DNA 2: TGGTGGCTACGACGGGATT
B20: UAUUGAA (DNA:RNA)
RNA: B7 RNA with C25U, G26A, C27U, A28U, G31A
DNA 1: CAATCTGAATTCCGGTCTCCC
DNA 2: TGGTGGCTACGACGGGATT

Biological target: T1, RBFOX1 RRM RbFoxmut (Fox-RRM*)
Assay: EMSA; HiTS-Eq, 1 nM pool, 10 min; buffer printed only for the single-RNA assays: 10 mM Tris pH 7.5, 150 mM NaCl, 3.4 mM EDTA, 0.001% NP-40, 30 C
Settings: tags: His6 N-terminal (pET28a); label: 5' 32P
Summary of the method: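 A pool of RNA with 7 randomized nucleotides, 5′-radiolabelled and with DNA-annealed flanks, was equilibrated at 1 nM for 10 min in 50 µL with purified RbFox RRM, wild type or mutant, across increasing protein concentrations. Free RNA was separated by 8% native PAGE, excised, reverse-transcribed, barcoded by PCR and sequenced. Relative association constants were obtained from read-count changes of each RNA species versus the control reaction and normalised to the cognate motif.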

Q: For B1, which binding signal is on record?
A: The binding signal was 0.0701 KA relative to UGCAUGU.

Q: For B2, which binding signal is on record?
A: The binding signal was 0.291 KA relative to UGCAUGU.

Q: Which binding signal does the source give for B3 here?
A: Its binding signal is 0.13 KA relative to UGCAUGU.

Q: For B4, which binding signal is on record?
A: The binding signal was 0.0892 KA relative to UGCAUGU.

Q: With B5 as the binder, how does the binding signal read?
A: Its binding signal is 0.0808 KA relative to UGCAUGU.

Q: Which binding signal does the source give for B6 here?
A: The binding signal was 0.0795 KA relative to UGCAUGU.

Q: B7 was tested. Which binding signal did it give?
A: The binding signal was 0.128 KA relative to UGCAUGU.

Q: With B8 as the binder, how does the binding signal read?
A: The binding signal was 0.135 KA relative to UGCAUGU.

Q: B9 was tested. Which binding signal did it give?
A: The binding signal was 0.0622 KA relative to UGCAUGU.

Q: How did the binding signal turn out when B10 was run?
A: Its binding signal is 0.0809 KA relative to UGCAUGU.

Q: B11 was tested. Which binding signal did it give?
A: Its binding signal is 0.0582 KA relative to UGCAUGU.

Q: B12 was tested. Which binding signal did it give?
A: The binding signal was 0.121 KA relative to UGCAUGU.

Q: With B13 as the binder, how does the binding signal read?
A: The binding signal was 0.105 KA relative to UGCAUGU.

Q: With B14 as the binder, how does the binding signal read?
A: Its binding signal is 0.111 KA relative to UGCAUGU.

Q: How did the binding signal turn out when B15 was run?
A: The binding signal was 0.09 KA relative to UGCAUGU.

Q: For B16, which binding signal is on record?
A: The binding signal was 0.0588 KA relative to UGCAUGU.

Q: Which binding signal does the source give for B17 here?
A: Its binding signal is 0.136 KA relative to UGCAUGU.

Q: B18 was tested. Which binding signal did it give?
A: The binding signal was 0.354 KA relative to UGCAUGU.

Q: Which binding signal does the source give for B19 here?
A: The binding signal was 0.235 KA relative to UGCAUGU.

Q: B20 was tested. Which binding signal did it give?
A: The binding signal was 0.0865 KA relative to UGCAUGU.
